From the BET-seq Pho4 binding data (Le et al. 2018)
Some of the results follow. Values were computed here from the reads of four pooled replicates and scatter widely.

Target: T1, Pho4 (S. cerevisiae) (UniProt P07270)
T1 sequence: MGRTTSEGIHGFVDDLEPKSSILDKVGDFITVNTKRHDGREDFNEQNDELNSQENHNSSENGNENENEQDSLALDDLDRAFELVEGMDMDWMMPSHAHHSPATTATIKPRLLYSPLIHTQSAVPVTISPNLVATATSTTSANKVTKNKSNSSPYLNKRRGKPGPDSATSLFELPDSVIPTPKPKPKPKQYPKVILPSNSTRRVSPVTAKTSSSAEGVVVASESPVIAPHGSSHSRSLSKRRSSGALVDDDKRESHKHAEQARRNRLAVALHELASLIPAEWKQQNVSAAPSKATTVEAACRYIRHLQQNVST
Assay: relative binding free energy (BET-seq); higher = weaker binding
Conditions: reference: library average

Sequence	relative binding free energy
GTCTTCACGTGTTATG	0.2 kcal/mol
GTCTACACGTGGGTGA	0.17 kcal/mol
GGTTACACGTGGAGTC	0.24 kcal/mol
GTTGTCACGTGGACTT	0.08 kcal/mol
TTATACACGTGAGGGT	0.23 kcal/mol
ATTAGCACGTGACGTG	0.08 kcal/mol
ATCTTCACGTGTATGT	0.28 kcal/mol
GGGGGCACGTGACGGG	0.09 kcal/mol
AATAGCACGTGTATGG	-0.12 kcal/mol
TTGTACACGTGTTTGC	-0.05 kcal/mol
GAGAGCACGTGGGGCT	-0.21 kcal/mol
GTGAACACGTGTTTGG	0.06 kcal/mol
ATATTCACGTGAGGCT	0.24 kcal/mol
ATTTACACGTGTTGTT	0.01 kcal/mol
GTACGCACGTGAGGTT	0.2 kcal/mol
TTGGTCACGTGGCCGT	-0.03 kcal/mol
GTCTGCACGTGGGGCT	-0.03 kcal/mol
GTCCTCACGTGTGGTT	0.33 kcal/mol
TTGGCCACGTGAAAGT	0.18 kcal/mol
TGGGTCACGTGTGATG	0.19 kcal/mol
TAGGCCACGTGGGTAG	-0.15 kcal/mol
GGGGACACGTGTGGTG	0.1 kcal/mol
GTTGACACGTGTAGCG	0.16 kcal/mol
AATATCACGTGAGGGG	0.26 kcal/mol
ATTATCACGTGGGGGG	0.02 kcal/mol
TGATTCACGTGTGGCA	0.13 kcal/mol

Sequence	relative binding free energy
CGTTTCACGTGTGGCA	0.22 kcal/mol
AGGGGCACGTGTACAG	-0.29 kcal/mol
AAGTTCACGTGGGAGA	0.1 kcal/mol
CGGATCACGTGTTAGG	0.06 kcal/mol
CAGGGCACGTGACGGG	0.06 kcal/mol
TTGATCACGTGTTCAG	0.1 kcal/mol
TACTGCACGTGGTGGT	-0.05 kcal/mol
GTTGACACGTGTATTT	0.09 kcal/mol
TGTGGCACGTGTTGAT	-0.05 kcal/mol
CGGGTCACGTGTTGAT	0.09 kcal/mol
GTGACCACGTGTCGGG	0.06 kcal/mol
TGACGCACGTGGATGT	-0.16 kcal/mol
ATGGCCACGTGGCGTA	-0.15 kcal/mol
CTTTTCACGTGATTAG	0.28 kcal/mol
GGTGTCACGTGGTTCC	0.15 kcal/mol
TCGGACACGTGGTGCG	-0.12 kcal/mol
TAGAGCACGTGAGGGC	0.09 kcal/mol
GGTATCACGTGAAAGG	0.5 kcal/mol
GGGAACACGTGTTAGT	0.09 kcal/mol
GAAGTCACGTGACTGG	0.39 kcal/mol
ACGGACACGTGGGTAG	0.01 kcal/mol
GGCTGCACGTGGAGCG	0.06 kcal/mol
ATATGCACGTGGGGTC	-0.38 kcal/mol
TAAATCACGTGCGTGA	0.17 kcal/mol
AATGGCACGTGCGTAT	-0.25 kcal/mol
CGGGTCACGTGTTTGT	0.08 kcal/mol

Sequence	relative binding free energy
TCCGGCACGTGTTTGT	0 kcal/mol
TTGGGCACGTGGCAGA	-0.09 kcal/mol
GACTTCACGTGGTATG	0.26 kcal/mol
TGAAGCACGTGTATAG	-0.01 kcal/mol
GTATGCACGTGAGTGA	0.18 kcal/mol
GCTGCCACGTGGTGGG	-0.15 kcal/mol
GGGGACACGTGTTGGT	0.08 kcal/mol
TAGTGCACGTGCTAGG	-0.08 kcal/mol
GAAGGCACGTGGGCGT	-0.26 kcal/mol
TCGTACACGTGATGGA	0.34 kcal/mol
AGTGGCACGTGTGTAC	-0.19 kcal/mol
TTTAGCACGTGGGTGT	-0.11 kcal/mol
ATGTTCACGTGATTGA	0.34 kcal/mol
GTGTACACGTGCGTTA	0.05 kcal/mol
TAGTACACGTGCGCGG	-0.04 kcal/mol
TTTGGCACGTGTGACT	0.09 kcal/mol
GTACGCACGTGATGTG	0.01 kcal/mol
TGAAGCACGTGCGATG	-0.07 kcal/mol
TGGTTCACGTGTCCGT	0.37 kcal/mol
CTTTTCACGTGTCGTA	0.29 kcal/mol
AAGGTCACGTGAGTGT	0.33 kcal/mol
TGGGTCACGTGAATAT	0.35 kcal/mol
CGTCGCACGTGGGGTT	-0.26 kcal/mol
CTTGCCACGTGTGTTT	-0.16 kcal/mol
ATTAACACGTGGTGAT	-0.1 kcal/mol
TGCTTCACGTGGTGGA	0.18 kcal/mol

Sequence	relative binding free energy
TGTTTCACGTGCATCT	0.21 kcal/mol
GGTTACACGTGGATTT	0.18 kcal/mol
TGTTTCACGTGCGCTA	0.19 kcal/mol
TAGTACACGTGGCGGC	0.02 kcal/mol
TGGAGCACGTGGGGTA	-0.2 kcal/mol
ATGTACACGTGCGGTG	0.01 kcal/mol
ATAATCACGTGTGATG	0.05 kcal/mol
TTGAGCACGTGAAGGC	0.14 kcal/mol
GAGAGCACGTGGATAG	0.05 kcal/mol
GATCGCACGTGTTGGA	0.09 kcal/mol
GTGCGCACGTGGGTTC	-0.23 kcal/mol
TTCAGCACGTGTGTTA	-0.07 kcal/mol
AGTTGCACGTGGCATG	-0.14 kcal/mol
CCGGTCACGTGTGTGT	0.08 kcal/mol
GTCTCCACGTGGGTTG	-0.03 kcal/mol
CTGGCCACGTGAGTTG	0.08 kcal/mol
ATTTTCACGTGATGGC	0.33 kcal/mol
GTAGTCACGTGAGTGG	0.21 kcal/mol
CTGCGCACGTGGGAGG	-0.33 kcal/mol
TTATTCACGTGGCCTG	0.36 kcal/mol
TACGTCACGTGGGTGA	-0.1 kcal/mol
TTAGTCACGTGAATTG	0.31 kcal/mol
TTGGGCACGTGTAAAT	-0.02 kcal/mol
TATGACACGTGTGATT	0.04 kcal/mol
AGATTCACGTGGCGGT	0.2 kcal/mol
GTTGCCACGTGGGTAC	-0.14 kcal/mol

Sequence	relative binding free energy
GTTTTCACGTGTTAGG	0.34 kcal/mol
TAACGCACGTGTAGGC	0.19 kcal/mol
AATTTCACGTGTCGTT	0.23 kcal/mol
TAAAGCACGTGTTTGT	-0.12 kcal/mol
GTGGCCACGTGTTTAA	0 kcal/mol
ATATTCACGTGCTTAT	0.19 kcal/mol
GGTAGCACGTGATGGG	0 kcal/mol
GGTTGCACGTGTGGTC	-0.01 kcal/mol
GTAGGCACGTGAAGCG	0.15 kcal/mol
TGTGTCACGTGAAGAA	0.15 kcal/mol
TGGTTCACGTGTTTAC	0.3 kcal/mol
GCGTACACGTGTGCGT	0.21 kcal/mol
AGGTTCACGTGATTTT	0.41 kcal/mol
GATGGCACGTGTGGTA	0.02 kcal/mol
GGGGGCACGTGAAGGT	0.17 kcal/mol
TGATACACGTGGTTCT	-0.08 kcal/mol
GAGATCACGTGGAGTT	0.28 kcal/mol
CGGTTCACGTGGTCGG	0.1 kcal/mol
TATAACACGTGATAGG	0.04 kcal/mol
GGTATCACGTGATCGT	0.22 kcal/mol
AGTATCACGTGTAGTA	0.09 kcal/mol
TCTGTCACGTGAAATG	0.36 kcal/mol
GTATGCACGTGACTGT	-0.06 kcal/mol
ATTTACACGTGCGGGA	0.11 kcal/mol
GGAAACACGTGTATGG	0.02 kcal/mol
TTCGTCACGTGGCAGT	0.05 kcal/mol

Sequence	relative binding free energy
TTCGTCACGTGGTATT	0.05 kcal/mol
CGTCACACGTGGGGGG	-0.23 kcal/mol
ATATCCACGTGAGGGT	0.16 kcal/mol
GAGTGCACGTGCGTGG	-0.1 kcal/mol
TGGGGCACGTGTAGAA	0.02 kcal/mol
TTGCACACGTGGTTGC	0.05 kcal/mol
TGGTACACGTGGACGG	0.08 kcal/mol
ATTTCCACGTGAGTTT	0.23 kcal/mol
ATTCTCACGTGTTAAT	0.29 kcal/mol
ATGTGCACGTGGCCAG	-0.08 kcal/mol
TGCAACACGTGTAGTT	0.09 kcal/mol
GTTGACACGTGGTTTA	0.07 kcal/mol
TCGGACACGTGGAGGT	0.1 kcal/mol
GGGATCACGTGTAGTG	0.23 kcal/mol
GTATGCACGTGATTGA	0.17 kcal/mol
TATCACACGTGTAAGT	0.26 kcal/mol
GGAGGCACGTGGCAAG	-0.17 kcal/mol
TTATCCACGTGGGTTT	-0.08 kcal/mol
GGGGACACGTGATGCT	0.18 kcal/mol
TTTGCCACGTGATTTA	0 kcal/mol
TCGGTCACGTGGGCTA	-0.02 kcal/mol
AGTGACACGTGTGTTG	0.02 kcal/mol
AGTTTCACGTGTTAAT	0.29 kcal/mol
TGTCGCACGTGGTGGG	-0.08 kcal/mol
CGGTGCACGTGGACGT	0.04 kcal/mol
TTGCTCACGTGTTTGA	0.11 kcal/mol

Sequence	relative binding free energy
ATATGCACGTGTTTTC	0 kcal/mol
GAAGGCACGTGCTGTT	-0.07 kcal/mol
GGTATCACGTGACAGG	0.26 kcal/mol
ACTGGCACGTGGTATT	-0.19 kcal/mol
AAAGACACGTGGGGTT	-0.05 kcal/mol
GTGAGCACGTGAGGGT	0.17 kcal/mol
AGGCGCACGTGGGCGG	-0.29 kcal/mol
GGTTTCACGTGTTTCA	0.41 kcal/mol
ATGTTCACGTGATCTA	0.27 kcal/mol
TGGGGCACGTGCAGGC	-0.25 kcal/mol
TATAACACGTGGAGTA	0.02 kcal/mol
TAAGGCACGTGGGCGG	-0.33 kcal/mol
GCGTACACGTGGGTCG	0.08 kcal/mol
TTATTCACGTGTTCAT	0.32 kcal/mol
TTAAGCACGTGTAAGG	-0.03 kcal/mol
GAGTGCACGTGGGCTC	-0.05 kcal/mol
TCGGCCACGTGGGGAG	-0.26 kcal/mol
TATGCCACGTGTGTTG	-0.18 kcal/mol
TTGATCACGTGTGAGG	0.27 kcal/mol
GGCTGCACGTGGTAAA	0.18 kcal/mol
GACGACACGTGGGGTG	0.06 kcal/mol
TAATTCACGTGTGAAA	0.48 kcal/mol
GGGGGCACGTGTGCCT	-0.25 kcal/mol
CGTTTCACGTGAAGTG	0.35 kcal/mol
CGTAACACGTGGGTGG	-0.22 kcal/mol
ATAGTCACGTGCATTT	0.06 kcal/mol

Sequence	relative binding free energy
TTACACACGTGGGGGC	-0.02 kcal/mol
TTGCTCACGTGTAATG	0.23 kcal/mol
TGATGCACGTGGGTCG	-0.14 kcal/mol
GGGCGCACGTGTGTCA	0.06 kcal/mol
ATGGTCACGTGTAAAA	0.2 kcal/mol
AAGAACACGTGCAGTT	0.38 kcal/mol
AAGGACACGTGCGTGA	0.04 kcal/mol
TAAGGCACGTGAGGGA	0.21 kcal/mol
GTTTTCACGTGATGGT	0.27 kcal/mol
CAGATCACGTGTGTGG	0.24 kcal/mol
GAGTTCACGTGTCAGG	0.24 kcal/mol
AGTTCCACGTGGTGCG	0 kcal/mol
GTAGACACGTGACGTG	0.09 kcal/mol
AGGTGCACGTGGCCTG	-0.27 kcal/mol
GCTGACACGTGAGTTT	0.45 kcal/mol
AGTGACACGTGTCGTG	-0.02 kcal/mol
GTGCTCACGTGTCTGG	0.2 kcal/mol
TTGATCACGTGTTAGG	0.14 kcal/mol
AGTAACACGTGAGCGT	0.15 kcal/mol
ATAGCCACGTGGAGGT	-0.08 kcal/mol
ATTAGCACGTGTGGCG	-0.08 kcal/mol
TTAAACACGTGGGAGT	-0.02 kcal/mol
TTGTACACGTGTGAGG	0.31 kcal/mol
TGGTTCACGTGGAAGT	0.42 kcal/mol
GGTTCCACGTGAGGTG	0.27 kcal/mol
AAGTGCACGTGATATA	0.08 kcal/mol

Sequence	relative binding free energy
GTTCGCACGTGGGAAA	0.01 kcal/mol
TTCTGCACGTGGTGTG	-0.05 kcal/mol
CTCTTCACGTGAGGTT	0.38 kcal/mol
GTTCTCACGTGGTAGA	0.28 kcal/mol
CGAAGCACGTGGAGGG	-0.07 kcal/mol
AAGGTCACGTGCTAGG	0.19 kcal/mol
GTAATCACGTGGATAT	0.16 kcal/mol
TAAGGCACGTGACAGG	0.02 kcal/mol
CCGTGCACGTGGTGGT	-0.07 kcal/mol
GAGGGCACGTGTAATT	0.11 kcal/mol
AGTGGCACGTGAGGCA	0.05 kcal/mol
TTGTGCACGTGAACGT	0.14 kcal/mol
CGAGGCACGTGTTGGA	0.08 kcal/mol
TTTGCCACGTGTTGTC	0.06 kcal/mol
TCAGGCACGTGGGTGA	-0.28 kcal/mol
TTTGACACGTGAAGCT	0.27 kcal/mol
TGGAACACGTGTATAT	0.06 kcal/mol
TTAAACACGTGGTGGT	-0.05 kcal/mol
GGGCACACGTGGGGGT	0.04 kcal/mol
ATTTTCACGTGGTCGG	0.19 kcal/mol
GGTGGCACGTGCATGC	-0.15 kcal/mol
GTGTTCACGTGATACT	0.24 kcal/mol
